Results: the supplement of paper PMC8728848
The other results are listed elsewhere or left out.

How the values were obtained:
Assay in all cases: glycan array binding signal (z-score within array); higher = stronger binding
Conditions in all cases: glycan notation: IUPAC condensed, linker removed
[1] = molecular target: GlcNAc(a1-4)Gal(b1-4)GalNAc
Summary of the method: (§1)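 Glycan array binding is given as a within-array Z-score, which can be read as non-binding when negative. The arrays, 3228 of them, came from the Consortium for Functional Glycomics database and were retained only where the protein sequence was available. Z-scores were averaged across arrays of the same protein sequence at different concentrations or buffers and across linkers.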

[2] = molecular target: GlcNAc(a1-4)Gal(b1-4)GlcNAc
Summary of the method: as §1

[3] = molecular target: GlcNAc(a1-4)Gal(b1-4)GlcNAc(b1-3)Gal(b1-4)Glc
Summary of the method: as §1

[4] = molecular target: GlcNAc(a1-4)Gal(b1-4)GlcNAc(b1-3)Gal(b1-4)GlcNAc
Summary of the method: as §1

[5] = molecular target: GlcNAc(a1-4)Gal(b1-4)GlcNAc(b1-3)Gal(b1-4)GlcNAc(b1-3)Gal(b1-4)GlcNAc
Summary of the method: as §1

[6] = molecular target: GlcNAc(a1-4)Gal(b1-4)GlcNAc(b1-3)Gal(b1-4)[Fuc(a1-3)]GlcNAc(b1-3)Gal(b1-4)[Fuc(a1-3)]GlcNAc
Summary of the method: as §1

[7] = molecular target: GlcNAc(a1-6)Gal(b1-4)GlcNAc
Summary of the method: as §1

[8] = molecular target: GlcNAc(b1-2)Gal(b1-3)GalNAc
Summary of the method: as §1

[9] = molecular target: GlcNAc(b1-2)Man(a1-3)[GlcNAc(b1-2)Man(a1-6)]Man(b1-4)GlcNAc(b1-4)GlcNAc
Summary of the method: as §1

[10] = molecular target: GlcNAc(b1-2)Man(a1-3)[GlcNAc(b1-2)Man(a1-6)]Man(b1-4)GlcNAc(b1-4)[Fuc(a1-6)]GlcNAc
Summary of the method: as §1

[11] = molecular target: GlcNAc(b1-2)[GlcNAc(b1-4)]Man(a1-3)[GlcNAc(b1-2)Man(a1-6)]Man(b1-4)GlcNAc(b1-4)GlcNAc
Summary of the method: as §1

GlcNAc(b1-3)Gal = molecular target: GlcNAc(b1-3)Gal
Summary of the method: as §1

[12] = molecular target: GlcNAc(b1-3)Gal(b1-3)GalNAc
Summary of the method: as §1

GlcNAc(b1-3)Gal(b1-4)Glc = molecular target: GlcNAc(b1-3)Gal(b1-4)Glc
Summary of the method: as §1

[13] = molecular target: GlcNAc(b1-3)Gal(b1-4)GlcNAc
Summary of the method: as §1

[14] = molecular target: GlcNAc(b1-3)Gal(b1-4)GlcNAc(b1-3)Gal(b1-4)GlcNAc
Summary of the method: as §1

GlcNAc(b1-3)GalNAc = molecular target: GlcNAc(b1-3)GalNAc
Summary of the method: as §1

GlcNAc(b1-3)Man = molecular target: GlcNAc(b1-3)Man
Summary of the method: as §1

[15] = molecular target: GlcNAc(b1-3)[GlcNAc(b1-4)][GlcNAc(b1-6)]GlcNAc
Summary of the method: as §1

[16] = molecular target: GlcNAc(b1-3)[GlcNAc(b1-6)]Gal(b1-4)GlcNAc
Summary of the method: as §1

[17] = molecular target: GlcNAc(b1-3)[GlcNAc(b1-6)]GalNAc
Summary of the method: as §1

[18] = molecular target: GlcNAc(b1-4)Gal(b1-4)GlcNAc
Summary of the method: as §1

GlcNAc(b1-4)GlcNAc = molecular target: GlcNAc(b1-4)GlcNAc
Summary of the method: as §1

[19] = molecular target: GlcNAc(b1-4)GlcNAc(b1-4)GlcNAc
Summary of the method: as §1

[20] = molecular target: GlcNAc(b1-4)GlcNAc(b1-4)GlcNAc(b1-4)GlcNAc(b1-4)GlcNAc
Summary of the method: as §1

[21] = molecular target: GlcNAc(b1-4)GlcNAc(b1-4)GlcNAc(b1-4)GlcNAc(b1-4)GlcNAc(b1-4)GlcNAc
Summary of the method: as §1

[22] = molecular target: GlcNAc(b1-4)[GlcNAc(b1-6)]GalNAc
Summary of the method: as §1

[23] = molecular target: GlcNAc(b1-6)Gal(b1-4)GlcNAc
Summary of the method: as §1

GlcNAc(b1-6)GalNAc = molecular target: GlcNAc(b1-6)GalNAc
Summary of the method: as §1

GlcNAc3Prop(b1-4)GlcNAc = molecular target: GlcNAc3Prop(b1-4)GlcNAc
Summary of the method: as §1

[24] = molecular target: GlcNAc6S(b1-3)Gal(b1-4)GlcNAc
Summary of the method: as §1

Kdn(a2-3)Gal(b1-3)GalNAc = molecular target: Kdn(a2-3)Gal(b1-3)GalNAc
Summary of the method: as §1

Kdn(a2-3)Gal(b1-3)GlcNAc = molecular target: Kdn(a2-3)Gal(b1-3)GlcNAc
Summary of the method: as §1

Kdn(a2-3)Gal(b1-4)Glc = molecular target: Kdn(a2-3)Gal(b1-4)Glc
Summary of the method: as §1

Kdn(a2-3)Gal(b1-4)GlcNAc = molecular target: Kdn(a2-3)Gal(b1-4)GlcNAc
Summary of the method: as §1

[25] = molecular target: Kdn(a2-3)Gal(b1-4)[Fuc(a1-3)]GlcNAc
Summary of the method: as §1

Kdn(a2-6)Gal(b1-4)GlcNAc = molecular target: Kdn(a2-6)Gal(b1-4)GlcNAc
Summary of the method: as §1

[26] = molecular target: Man(a1-2)Man(a1-2)Man(a1-3)Man
Summary of the method: as §1

[27] = molecular target: Man(a1-2)Man(a1-2)Man(a1-6)[Man(a1-3)]Man
Summary of the method: as §1

Man(a1-2)Man(a1-3)Man = molecular target: Man(a1-2)Man(a1-3)Man
Summary of the method: as §1

[28] = molecular target: Man(a1-2)Man(a1-3)[Man(a1-2)Man(a1-6)]Man
Summary of the method: as §1

[29] = molecular target: Man(a1-2)Man(a1-3)[Man(a1-2)Man(a1-6)]Man(a1-6)[Man(a1-2)Man(a1-2)Man(a1-3)]Man
Summary of the method: as §1

[30] = molecular target: Man(a1-2)Man(a1-3)[Man(a1-2)Man(a1-6)]Man(a1-6)[Man(a1-2)Man(a1-2)Man(a1-3)]Man(b1-4)GlcNAc(b1-4)GlcNAc
Summary of the method: as §1

[31] = molecular target: Man(a1-2)Man(a1-3)[Man(a1-6)]Man(a1-6)[Man(a1-2)Man(a1-3)]Man(b1-4)GlcNAc(b1-4)GlcNAc
Summary of the method: as §1

[32] = molecular target: Man(a1-2)Man(a1-6)[Man(a1-3)]Man(a1-6)[Man(a1-2)Man(a1-2)Man(a1-3)]Man
Summary of the method: as §1

[33] = molecular target: Man(a1-2)Man(a1-6)[Man(a1-3)]Man(a1-6)[Man(a1-2)Man(a1-2)Man(a1-3)]Man(b1-4)GlcNAc(b1-4)GlcNAc
Summary of the method: as §1

Man(a1-3)[Man(a1-6)]Man = molecular target: Man(a1-3)[Man(a1-6)]Man
Summary of the method: as §1

[34] = molecular target: Man(a1-3)[Man(a1-6)]Man(a1-6)[Man(a1-2)Man(a1-3)]Man(b1-4)GlcNAc(b1-4)GlcNAc
Summary of the method: as §1

[35] = molecular target: Man(a1-3)[Man(a1-6)]Man(a1-6)[Man(a1-3)]Man
Summary of the method: as §1

[36] = molecular target: Man(a1-3)[Man(a1-6)]Man(a1-6)[Man(a1-3)]Man(b1-4)GlcNAc(b1-4)GlcNAc
Summary of the method: as §1

[37] = molecular target: Man(a1-3)[Man(a1-6)]Man(b1-4)GlcNAc(b1-4)GlcNAc
Summary of the method: as §1

Man(a1-6)Man = molecular target: Man(a1-6)Man
Summary of the method: as §1

Man(b1-4)GlcNAc = molecular target: Man(b1-4)GlcNAc
Summary of the method: as §1

Neu5Ac(a2-3)Gal = molecular target: Neu5Ac(a2-3)Gal
Summary of the method: as §1

[38] = molecular target: Neu5Ac(a2-3)Gal(b1-3)GalNAc
Summary of the method: as §1

[39] = molecular target: Neu5Ac(a2-3)Gal(b1-3)GalNAc(b1-3)Gal(a1-4)Gal(b1-4)Glc
Summary of the method: as §1

[40] = molecular target: Neu5Ac(a2-3)Gal(b1-3)GalNAc(b1-4)[Neu5Ac(a2-3)]Gal(b1-4)Glc
Summary of the method: as §1

[41] = molecular target: Neu5Ac(a2-3)Gal(b1-3)GalNAc6S
Summary of the method: as §1

[42] = molecular target: Neu5Ac(a2-3)Gal(b1-3)GlcNAc
Summary of the method: as §1

[43] = molecular target: Neu5Ac(a2-3)Gal(b1-3)GlcNAc(b1-2)Man(a1-3)[Neu5Ac(a2-3)Gal(b1-3)GlcNAc(b1-2)Man(a1-6)]Man(b1-4)GlcNAc(b1-4)GlcNAc
Summary of the method: as §1

[44] = molecular target: Neu5Ac(a2-3)Gal(b1-3)GlcNAc(b1-3)Gal(b1-3)GlcNAc
Summary of the method: as §1

[45] = molecular target: Neu5Ac(a2-3)Gal(b1-3)GlcNAc(b1-3)Gal(b1-4)GlcNAc
Summary of the method: as §1

[46] = molecular target: Neu5Ac(a2-3)Gal(b1-3)GlcNAc(b1-3)GalNAc
Summary of the method: as §1

[47] = molecular target: Neu5Ac(a2-3)Gal(b1-3)GlcNAc6S
Summary of the method: as §1

[48] = molecular target: Neu5Ac(a2-3)Gal(b1-3)[Fuc(a1-4)]GlcNAc
Summary of the method: as §1

[49] = molecular target: Neu5Ac(a2-3)Gal(b1-3)[Fuc(a1-4)]GlcNAc(b1-3)Gal(b1-3)[Fuc(a1-4)]GlcNAc
Summary of the method: as §1

[50] = molecular target: Neu5Ac(a2-3)Gal(b1-3)[Fuc(a1-4)]GlcNAc(b1-3)Gal(b1-4)[Fuc(a1-3)]GlcNAc
Summary of the method: as §1

[51] = molecular target: Neu5Ac(a2-3)Gal(b1-3)[Neu5Ac(a2-3)Gal(b1-4)]GlcNAc
Summary of the method: as §1

[52] = molecular target: Neu5Ac(a2-3)Gal(b1-3)[Neu5Ac(a2-6)]GalNAc
Summary of the method: as §1

Neu5Ac(a2-3)Gal(b1-4)Glc = molecular target: Neu5Ac(a2-3)Gal(b1-4)Glc
Summary of the method: as §1

Measured: glycan array binding signal (z-score)

B1: Gal 3 (Homo sapiens), P17931 (protein)
chain: MADNFSLHDALSGSGNPNPQGWPGAWGNQPAGAGGYPGASYPGAYPGQAPPGAYPGQAPPGAYHGAPGAYPGAPAPGVYPGPPSGPGAYPSSGQPSAPGAYPATGPYGAPAGPLIVPYNLPLPGGVVPRMLITILGTVKPNANILDFQRGNDVAFHFNPRFNENNRRVIVCNTKLDNNWGREERQSVFPFESGKPFKIQVLVEPDHFKVAVNDAHLLQYNHRVKKLNEISKLGISGDIDLTSASYTMI
3.49: [14]
0.941: [3]
0.399: [13]
-0.391: [2] | [9] | [11] | GlcNAc(b1-3)Gal(b1-4)Glc | GlcNAc(b1-3)GalNAc | GlcNAc(b1-3)Man | [17] | [21] | GlcNAc(b1-6)GalNAc | Kdn(a2-3)Gal(b1-4)Glc | Man(a1-2)Man(a1-3)Man | [28] | [30] | [39] | [47] | [48]
-0.386: [12] | GlcNAc(b1-4)GlcNAc | GlcNAc3Prop(b1-4)GlcNAc | Kdn(a2-3)Gal(b1-4)GlcNAc | [36]
-0.364: [6]
1.28: [4]
-0.377: [18]
-0.362: [15]
3.81: [5]
-0.389: [1] | [8] | [10] | [19] | [23] | Kdn(a2-3)Gal(b1-3)GlcNAc | [26] | [27] | [29] | [31] | Man(b1-4)GlcNAc | [50] | [51] | [52]
-0.392: [7] | [37] | [40]
2.27: [45]
-0.381: [33] | Man(a1-6)Man
-0.375: [46]
-0.371: [22]
-0.384: Man(a1-3)[Man(a1-6)]Man | [35]
-0.379: [20] | [32]
-0.383: [42] | [49] | Neu5Ac(a2-3)Gal(b1-4)Glc
2.29: [44]
-0.385: [25]
-0.388: [34] | Neu5Ac(a2-3)Gal | [38] | [43]
-0.39: GlcNAc(b1-3)Gal | [16] | [24] | Kdn(a2-3)Gal(b1-3)GalNAc | Kdn(a2-6)Gal(b1-4)GlcNAc | [41]
